Structures are written as SMILES. Some of the results follow.

The test deals with HSkMC (human skeletal muscle cells). Briefly: cytotoxicity call (relative viability < 0.9). As to conditions: 10 µM.
Turning to `C[C@H](CO)N1C[C@H](C)[C@@H](CN(C)Cc2ccc(Oc3ccccc3)cc2)Oc2ccc(NC(=O)NC3CCCCC3)cc2CC1=O`, the cytotoxicity call was “inactive”. Next, `Cc1noc(C)c1NC(=O)Nc1ccc2c(c1)C(=O)N([C@@H](C)CO)C[C@@H](C)[C@H](CN(C)C(=O)Nc1ccc3c(c1)OCO3)OCCCC[C@H](C)O2`: “inactive”. For the compound `C[C@@H]1CN([C@@H](C)CO)C(=O)c2cc(NC(=O)Cn3cnnn3)ccc2O[C@H]1CN(C)Cc1ccc(C(F)(F)F)cc1`, the cytotoxicity call is “inactive”. Consider `CC(C)NC(=O)N(C)C[C@@H]1Oc2ccc(NS(=O)(=O)c3ccc(F)cc3)cc2CC(=O)N([C@H](C)CO)C[C@H]1C`, for which the cytotoxicity call is “inactive”. On to `C[C@H](CO)N1C[C@H](C)[C@H](CN(C)S(=O)(=O)c2cn(C)cn2)Oc2ccc(NC(=O)CCCN(C)C)cc2C1=O`, for which the cytotoxicity call was “inactive”. `C[C@@H]1CCCCO[C@@H](CN(C)S(=O)(=O)c2cn(C)cn2)[C@H](C)CN([C@H](C)CO)C(=O)c2cc(NC(=O)Nc3cccc4ccccc34)ccc2O1`: the cytotoxicity call was “inactive”. As for `CC[C@@H](NC)C(=O)O`, the cytotoxicity call is “inactive”. For `C[C@@H]1CCCCO[C@H](CN(C)Cc2ccccc2)[C@@H](C)CN([C@H](C)CO)C(=O)c2cc(NS(=O)(=O)c3ccc(Cl)cc3)ccc2O1`, the cytotoxicity call is “inactive”. Take `Cc1noc(C)c1S(=O)(=O)Nc1ccc2c(c1)C(=O)N([C@@H](C)CO)C[C@@H](C)[C@@H](CN(C)C(=O)NC1CCCCC1)O2`: the cytotoxicity call is “inactive”.

On to `Cc1ccc(S(=O)(=O)N(C)C[C@@H]2OCCCC[C@H](C)Oc3ccc(NC(=O)Nc4ccc(C(F)(F)F)cc4)cc3C(=O)N([C@H](C)CO)C[C@H]2C)cc1`, for which the cytotoxicity call is “inactive”.

On to `Cc1ccc(S(=O)(=O)NCC[C@@H]2CC[C@H](NS(=O)(=O)c3ccccc3Cl)[C@H](CO)O2)cc1`, for which the cytotoxicity call is “inactive”. For the compound `C[C@@H]1CN([C@@H](C)CO)C(=O)c2cc(NC(=O)Cc3ccccc3)ccc2O[C@@H](C)CCCCO[C@@H]1CN(C)Cc1ccncc1`, the cytotoxicity call was “inactive”. As for `COc1ccc2c3c([nH]c2c1)[C@H](CO)N(CC1CCCC1)C[C@]13CCN(CC1)C(=O)Nc1cccc(c1)F`, the cytotoxicity call is “inactive”. Next, `Cc1noc(C)c1S(=O)(=O)N(C)C[C@H]1OCCCC[C@H](C)Oc2ccc(NC(=O)Nc3ccc(F)cc3)cc2C(=O)N([C@@H](C)CO)C[C@@H]1C`: “inactive”; `O=C(CN1CCOCC1)NCC[C@H]1CC[C@@H](NC(=O)Nc2ccccc2)[C@H](CO)O1`: “inactive”.

With `C[C@@H]1CN([C@H](C)CO)C(=O)Cc2cc(NS(=O)(=O)c3ccc(Cl)cc3)ccc2O[C@H]1CN(C)Cc1ccc(C(=O)Nc2ccccc2N)cc1`, the cytotoxicity call is “inactive”. Turning to `Cc1ccc(S(=O)(=O)N[C@H](C(=O)NCCn2cc(CN3C(=O)COC[C@H]3c3ccccc3)nn2)C(C)C)cc1`, the cytotoxicity call was “inactive”.

For `O=C(C[C@@H]1CC[C@@H]2[C@H](COC[C@H](O)CN2S(=O)(=O)c2ccc(Oc3ccccc3)cc2)O1)NCCN1CCCCC1`, the cytotoxicity call was “inactive”.

For `C[C@@H]1O[C@@H](O[C@H]2[C@H](Oc3cc(O)c4c(c3)O[C@H](c3ccc(O)cc3)CC4=O)O[C@H](CO)[C@@H](O)[C@@H]2O)[C@H](O)[C@H](O)[C@H]1O`, the cytotoxicity call was “inactive”. Next, `Cc1ccc(S(=O)(=O)N(C)C[C@H]2Oc3ccc(NC(=O)CCCN(C)C)cc3CC(=O)N([C@H](C)CO)C[C@@H]2C)cc1`: “inactive”; `C[C@@H]1CN([C@H](C)CO)C(=O)c2c(c3ccccc3n2C)-c2ccccc2CO[C@@H]1CN(C)S(=O)(=O)c1ccc(C(F)(F)F)cc1`: “inactive”. For `C[C@H]1CN([C@@H](C)CO)C(=O)Cc2cc(NC(=O)Nc3ccccc3)ccc2O[C@@H]1CN(C)Cc1ccc(Cl)c(Cl)c1` the value was “active”; for `C[C@@H](NC(=O)C[C@@H]1CC[C@@H](NC(=O)CN2CCOCC2)[C@H](CO)O1)c1ccccc1`, “inactive”. With `CC1(C)OC2CC(=O)OCC23C1CC(=O)C1(C)C3CCC2(C)C(c3ccoc3)OC(=O)C3OC321` (stereo not given), the cytotoxicity call was “inactive”. Take `COc1ccc(cc1)NC(=O)N1C[C@]2(C1)CN([C@@H](CO)c1[nH]c3cc(ccc3c12)OC)C(=O)CN1CCOCC1`: the cytotoxicity call was “inactive”. Regarding `CN(C)C(=O)CN1C[C@@H]2CCN(C(=O)NCc3ccccc3)CC[C@H]2S1(=O)=O`, the cytotoxicity call is “inactive”.

`CC(C)(C)C(=O)N[C@@H]1CC(=O)N(C2CC2)C1`: the cytotoxicity call was “inactive”. For `C[C@H](CO)N1C[C@H](C)[C@@H](CN(C)C(=O)Nc2cccc3ccccc23)OCCCC[C@H](C)Oc2ccc(NC(=O)c3ccncc3)cc2C1=O` the value was “inactive”. On to `CO[C@@H]1CN(C)C(=O)c2cc(NS(=O)(=O)c3cn(C)cn3)ccc2OC[C@@H](C)N(CC2CC2)C[C@@H]1C`, for which the cytotoxicity call was “inactive”. For the compound `CNC[C@H]1Oc2c(NS(=O)(=O)c3cn(C)cn3)cccc2C(=O)N([C@H](C)CO)C[C@H]1C`, the cytotoxicity call was “inactive”. `C[C@@H]1CCCCO[C@H](CN(C)S(=O)(=O)c2ccc(Cl)cc2)[C@H](C)CN([C@H](C)CO)C(=O)c2cc(NC(=O)Cc3ccccc3)ccc2O1`: the cytotoxicity call is “inactive”.

On to `CC(C)=CCCC(C)=CCC1=C(C)C(=O)c2ccccc2C1=O`, for which the cytotoxicity call is “inactive”. With `Cc1cc2cccc(C(=O)N[C@H]3CC[C@@H](N)CC3)c2o1`, the cytotoxicity call was “inactive”. For `C[C@@H]1CN([C@@H](C)CO)C(=O)Cc2cc(NC(=O)CCC(F)(F)F)ccc2O[C@H]1CN(C)Cc1ccc(Oc2ccccc2)cc1` the value was “inactive”; for `COCC#Cc1cnc2c(c1)C(=O)N([C@H](C)CO)C[C@@H](C)[C@@H](CN(C)C(=O)c1ccc3c(c1)OCO3)O2`, “inactive”; for `C[C@@H]1CCCCO[C@@H](CN(C)C(=O)CCC(F)(F)F)[C@@H](C)CN([C@@H](C)CO)C(=O)c2cc(NS(=O)(=O)c3ccc(Cl)cc3)ccc2O1`, “inactive”. For `COC(=O)c1c(CC[C@@H](CO)NC(=O)N[C@@H](Cc2ccccc2)Cn2cc(-c3ccccn3)nn2)oc(C(=O)N2CCOCC2)c1C(=O)OC`, the cytotoxicity call is “inactive”. For `Cc1noc(C)c1NC(=O)Nc1ccc2c(c1)C(=O)N([C@@H](C)CO)C[C@H](C)[C@@H](CN(C)Cc1ccc(C(=O)O)cc1)OCCCC[C@H](C)O2` the value was “inactive”; for `C[C@@H]1CCCCO[C@@H](CN(C)Cc2ccncc2)[C@@H](C)CN([C@@H](C)CO)C(=O)c2cc(NC(=O)C3CCCCC3)ccc2O1`, “inactive”; for `O=C(CS)NCCCCCNC(=O)[C@H]1C[C@H]2C(=O)NCC(=O)N2[C@H]1c1cccc(OCCO)c1`, “inactive”.

The record behind these values is the antibiotic and cytotoxicity screens of Wong et al. (2023).
